Several values for one entry are separate records, joined by “and”; a condition that tells them apart may be missing. Equal entries are not always repeated. The campaign covered roughly 390,000 compounds. About 17,000 (4.4%) were called active. The inconclusive results got no clear call from the source; some entries with a clear call stand among them for comparison. Calls come from the whole dose curve; as a rule, active = well fitted inhibition curve with a large enough effect; inconclusive = small, poorly fitted or top-dose-only effect; inactive = no such curve, though single readings can be large or run the other way. Potencies of inconclusive entries are doubtful fits and often do not repeat.
target: Lysine-specific demethylase 4A (Homo sapiens) (UniProt O75164); experiment: qHTS Assay for Inhibitors of JMJD2A-Tudor Domain; details: AlphaScreen JMJD2A-Tudor / H3K4me3 peptide binding; activity change, negative = inhibition: at 114 µM (top of the series); note: nearly all actives have a fitted effect of over 50% in size
Sequence of UniProt O75164 (O75164 whole entry, looked up, the tested form may be a part): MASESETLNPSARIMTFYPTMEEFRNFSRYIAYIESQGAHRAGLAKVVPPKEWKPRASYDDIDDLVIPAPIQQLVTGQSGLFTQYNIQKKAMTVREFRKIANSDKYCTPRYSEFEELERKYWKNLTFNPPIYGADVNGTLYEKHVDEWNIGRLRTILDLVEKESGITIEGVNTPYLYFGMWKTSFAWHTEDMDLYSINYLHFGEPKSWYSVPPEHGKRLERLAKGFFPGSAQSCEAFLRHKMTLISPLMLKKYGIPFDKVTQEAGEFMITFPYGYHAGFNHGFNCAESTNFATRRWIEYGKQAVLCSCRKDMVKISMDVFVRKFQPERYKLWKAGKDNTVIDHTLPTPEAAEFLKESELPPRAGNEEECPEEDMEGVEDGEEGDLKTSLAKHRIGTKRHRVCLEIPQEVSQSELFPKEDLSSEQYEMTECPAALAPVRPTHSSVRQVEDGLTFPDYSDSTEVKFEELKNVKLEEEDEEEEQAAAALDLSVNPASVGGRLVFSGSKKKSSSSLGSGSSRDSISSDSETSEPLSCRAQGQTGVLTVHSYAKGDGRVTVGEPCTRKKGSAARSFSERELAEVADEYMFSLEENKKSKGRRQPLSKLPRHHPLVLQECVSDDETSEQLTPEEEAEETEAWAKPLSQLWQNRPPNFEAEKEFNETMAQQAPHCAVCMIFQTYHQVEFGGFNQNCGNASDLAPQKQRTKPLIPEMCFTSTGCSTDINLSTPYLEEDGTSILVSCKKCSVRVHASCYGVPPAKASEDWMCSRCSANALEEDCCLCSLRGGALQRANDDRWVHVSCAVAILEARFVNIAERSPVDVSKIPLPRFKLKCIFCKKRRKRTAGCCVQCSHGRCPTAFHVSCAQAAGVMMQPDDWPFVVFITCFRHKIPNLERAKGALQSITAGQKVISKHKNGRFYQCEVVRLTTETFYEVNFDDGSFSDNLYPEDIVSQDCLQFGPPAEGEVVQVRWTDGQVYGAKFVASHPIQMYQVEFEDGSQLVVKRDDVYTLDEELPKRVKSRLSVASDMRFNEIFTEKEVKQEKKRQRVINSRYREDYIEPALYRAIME
% is set by controls: 0 for no effect and ±100 for the full control effect; potency is the fitted concentration of half-maximal effect; tags give direction and shape of the fitted curve.

Row | SMILES | Potency | activity change, negative = inhibition
1 | CN(C)c1ccc(NS(=O)(=O)c2cc(Cl)ccc2Cl)cc1 | active: 56.2 µM | 
2 | Nc1ccc2nc(SCc3ccccc3F)sc2c1 | active: 25.1 µM | 
3 | Cc1sc(N/N=C/c2cccs2)nc1-c1ccccc1 | active: 25.1 µM | 
4 | O=C(c1noc2c1CCCC2)N1CCc2c([nH]c3ccccc23)C1c1ccccn1 (configuration not stated) |  | inconclusive: -56.2% [inhibitor]
5 | CCc1nnc(NS(=O)(=O)c2ccc(N/C=C\C(=O)c3ccc(C)cc3)cc2)s1 | inconclusive: 79.4 µM [inhibitor, single point] | 
6 | CC(C)c1ccc(Nc2c(-c3ccccc3O)nc3cnccn23)cc1 | inconclusive: 14.1 µM [inhibitor, full curve] | 
7 | c1ccc(CCNCCOc2ccccc2)cc1 | active: 2.82 µM | 
8 | COc1ccc2oc(C(=O)OCc3nnc(-c4ccccc4)o3)c(C)c2c1 |  | inactive: -1.37%
9 | Cc1cc(NC(=O)CN2C(=O)NC(c3ccccc3)(c3ccc(C)c(C)c3)C2=O)no1 (configuration not stated) | inconclusive: 44.7 µM [inhibitor, full curve, poor fit] | 
10 | COc1ccc(CC(=O)Nc2nc3ccccc3[nH]2)cc1 |  | inactive: -10.6%
11 | Cc1ccc(NC(=O)CCCc2nc3ccccc3c(=O)[nH]2)c(Cl)c1 |  | inactive: -12.6%
12 | CCOC(=O)C1CCCN(Cc2ccc(OCC)cc2)C1 (configuration not stated) | active: 20 µM | 
13 | CSc1ccc(CNC(=O)c2cc3c(=O)n(Cc4ccco4)ccc3nc2C)cc1 |  | inactive: -14%
14 | C/C(=N\Nc1nc2ccccc2[nH]1)c1ccc(C)o1 | inconclusive: 56.2 µM [inhibitor, partial curve] | 
15 | Cc1cccc(-n2c(C)cc(/C=N/NC(=O)c3ccc(CN4CCOCC4)cc3)c2C)c1 | inconclusive: 50.1 µM [inhibitor, partial curve] | 
16 | COc1ccc([N+](=O)[O-])cc1NCc1ccccc1C | active: 31.6 µM | 
17 | O=C(Cn1cnc([N+](=O)[O-])n1)N/N=C/c1ccc(O)cc1O | active: 63.1 µM | 
18 | Cc1ccc(Nc2ccc(C(=O)NC3CCCCC3)cn2)cc1 | inconclusive: 3.98 µM [inhibitor, single point] | 
19 | O=C(CSc1nnc(-c2cccc(S(=O)(=O)N3CCCC3)c2)n1-c1ccccc1)Nc1ccc(C(=O)O)cc1 | inconclusive: 89.1 µM [inhibitor, partial curve] | 
20 | O=C(COC(=O)/C=C/c1ccc(Cl)cc1)NCCN1C(=O)CSC1=O | inconclusive: 15.8 µM [inhibitor, full curve] | 
21 | CC(Cc1nnc(SCC(=O)O)n1N)c1ccccc1 (configuration not stated) | inconclusive: 22.4 µM [inhibitor, partial curve] | 
22 | COc1ccc(N2CCN(C(=O)c3nc(-c4ccc(Cl)cc4)n4c3CCCCC4)CC2)cc1 | active: 35.5 µM | 
23 | CCOc1ccc(/C(O)=C2/C(=O)C(=O)N(c3nc(C)c(C)s3)C2c2ccco2)cc1 (configuration not stated) | inconclusive: 79.4 µM [inhibitor, partial curve] | 
24 | CCOC(=O)c1ccc(Oc2cn[nH]c2-c2ccc(OCC(=O)NN)cc2O)cc1 | inconclusive: 10 µM [inhibitor, full curve, poor fit] | 

Row | SMILES | Potency | activity change, negative = inhibition
25 | CCOc1ccc(NC(=O)CCN2CCN(S(=O)(=O)c3ccc(Cl)cc3)CC2)cc1 |  | inactive: -7.3%
26 | CN1CCN(CCCN2c3ccccc3Sc3ccc(C(F)(F)F)cc32)CC1 | inconclusive: 56.2 µM [inhibitor, partial curve] and inconclusive: 15.8 µM [inhibitor, full curve] and inconclusive: 50.1 µM [inhibitor, partial curve] | 
27 | CC1CCCC(C)N1/N=C/c1ccccc1F (configuration not stated) | active: 3.16 µM | 
28 | CCN(Cc1nc(-c2ccc(C)cc2)no1)C(=O)c1ccco1 |  | inactive: 3.18%
29 | Cc1ccc(S(=O)(=O)c2nc(S(C)(=O)=O)sc2N2CCCCCC2)cc1 | inconclusive: 7.94 µM [inhibitor, full curve] | 
30 | COc1ccc(C(=O)NC2CCCN(Cc3ccc(Cl)cc3)C2)c(OC)c1 (configuration not stated) | inconclusive: 56.2 µM [inhibitor, partial curve] | 
31 | COc1ccc(Cc2n[nH]c(=S)n2Cc2ccccc2)cc1Cl | active: 56.2 µM | 
32 | CCc1ccc(N2CC(C(=O)N/N=C/c3cc([N+](=O)[O-])ccc3O)CC2=O)cc1 (configuration not stated) | active: 39.8 µM | 
33 | Cc1ccc(CC(=O)OCCNC(=O)c2cccnc2)cc1 | inconclusive: 89.1 µM [inhibitor, partial curve] | 
34 | Cc1nc2c3ccccc3nc(NNC(=O)CCC(=O)N3CCN(c4ccccc4)CC3)n2n1 | inactive | 
35 | Cc1cc(C)nc(SCC(CSc2nc(C)cc(C)n2)C(=O)O)n1 |  | inactive: -5.26% [at 57.1 µM]
36 | CCOC(=O)c1c(C)oc2nc(C)nc(NC(C)c3ccccc3)c12 (configuration not stated) |  | inactive: -8.74%
37 | O=C(c1cc(Br)ccc1Cl)N1CCN(c2ncccn2)CC1 | inconclusive: 39.8 µM [inhibitor, single point] | 
38 | O=C(Nc1nc(-c2ccccn2)cs1)C1CCCC1 | inconclusive: 56.2 µM [inhibitor, partial curve] | 
39 | COc1ccc(/C=N/OC(=O)Nc2ccc(Cl)cc2)c(OC)c1 |  | inactive: -9.09%
40 | Cc1[nH]c2ccccc2c1/C=N/NC(=O)c1cc(-c2cccs2)[nH]n1 | inconclusive: 17.8 µM [inhibitor, partial curve, poor fit] | 
41 | COc1cc(OC)cc(N(C(=O)C2COc3ccccc3O2)C(C(=O)NC2CCCCC2)c2ccc(O)cc2)c1 (configuration not stated) | inconclusive: 44.7 µM [inhibitor, single point] | 
42 | COc1ccccc1NC(=O)CSc1nnc(CCNC(=O)c2ccc(C)cc2)n1C |  | inactive: 0.725%
43 | c1ccc2c(c1)OCC(c1nn3c(Cn4nnc5ccccc54)nnc3s1)O2 (configuration not stated) | inconclusive: 50.1 µM [inhibitor, partial curve] | 
44 | COc1ccc(-c2csc(Nc3ncccc3C)n2)cc1 | inconclusive: 56.2 µM [inhibitor, partial curve] | 
45 | Nc1nc(=S)c2n[nH]nc2[nH]1 | active: 17.8 µM | 
46 | O=C(CN1CCN(Cc2ccccc2Cl)CC1)N/N=C/C=C\c1ccccc1[N+](=O)[O-] | inconclusive: 56.2 µM [inhibitor, partial curve] | 
47 | O=C(O)CCc1ccc(-c2cccs2)n1CCc1ccccc1 | inconclusive: 56.2 µM [inhibitor, partial curve] | 
48 | CCCN1CNc2c(c(=O)[nH]c(=S)n2CCc2ccccc2OC)C1 |  | inactive: -15.6%

Row | SMILES | Potency | activity change, negative = inhibition
49 | O=C(NNc1cccc(Cl)n1)c1ccccc1CC[N+](=O)[O-] | active: 22.4 µM | 
50 | CCCNc1cc(=S)nc(N)[nH]1 | active: 22.4 µM | 
51 | O=C(NCCCn1ccnc1)c1nn2c(C(F)(F)F)cc(-c3ccc(Br)cc3)nc2c1Cl | active: 44.7 µM | 
52 | CCC(CC)c1nnc(NC(=O)c2ccc(N3CCCCC3)c([N+](=O)[O-])c2)s1 |  | inconclusive: -45.7% [inhibitor]
53 | COc1ccc(NC(=S)Nc2ccc3nsnc3c2)cc1 | inconclusive: 89.1 µM [inhibitor, partial curve, poor fit] | 
54 | COc1ccc(-c2noc(N3CCN(c4cccc(C)c4C)CC3)n2)cc1OC |  | inactive: -18.5%
55 | COc1ccccc1C(=O)Nc1nnc(SCc2cc(=O)n3ccc(C)cc3n2)s1 |  | inactive: -16.2%
56 | COc1ccccc1N1CCN(C(=O)c2cc3c(s2)CCC3)CC1 | inconclusive: 89.1 µM [inhibitor, partial curve] | 
57 | C#CCOCCOCCOCCNc1nc(N2CCOCC2)nc(N2CCN(C(=O)[C@H](Cc3cc4ccccc4[nH]3)n3cc([C@@H](N)C(C)CC)nn3)CC2)n1 (some centres not stated) | inconclusive: 39.8 µM [inhibitor, partial curve] | 
58 | O=C(CNc1ccc(Cl)c(C(F)(F)F)c1)N1CCN(S(=O)(=O)c2ccccc2)CC1 | active: 79.4 µM | 
59 | CCn1nc(C(=O)OCC(=O)Nc2ncc(Cl)c(C)c2Cl)c2ccccc2c1=O | inconclusive: 50.1 µM [inhibitor, partial curve] | 
60 | Cc1ccc(C(=O)Nc2ccc(OCc3cc(=O)n4c5c(sc4n3)CCCC5)cc2)cc1 |  | inactive: 6.29%
61 | S=c1[nH]nc(Cc2c[nH]c3ccccc23)o1 | active: 79.4 µM | 
62 | C[N+]1(C2CCC3CCCC2C3O)CCCCC1 (configuration not stated) | active: 20 µM | 
63 | C[C@@H]1CN([C@@H](C)CO)C(=O)c2cc(NC(=O)Nc3ccc(F)cc3)ccc2O[C@@H]1CN(C)Cc1ccc(Oc2ccccc2)cc1 | inconclusive: 12.6 µM [inhibitor, full curve] | 
64 | O=C(c1ccco1)N1CCN(C(=O)N2c3ccccc3Sc3ccccc32)CC1 | inconclusive: 56.2 µM [inhibitor, partial curve] | 
65 | CC1Cc2ccccc2N1Cc1cccc([N+](=O)[O-])c1 (configuration not stated) | active: 35.5 µM | 
66 | COc1ccc(CCN2C(=O)N(c3ccc(F)cc3)C(=O)C2CC(=O)Nc2ccc(F)c(F)c2)cc1 (configuration not stated) |  | inactive: -22.2%
67 | c1cc2c3c(cccc3c1)NN=N2 | inconclusive: 56.2 µM [inhibitor, partial curve] | 
68 | COc1ccccc1N(C(=O)c1snc(C(N)=O)c1N)C(C(=O)NC1CCCC1)c1ccc(N(C)C)cc1 (configuration not stated) | inconclusive: 14.1 µM [inhibitor, partial curve] | 
69 | COc1ccc(C(=O)Nc2nnc(C3=COCCO3)o2)cc1OC | active: 50.1 µM | 
70 | O=C(NNS(=O)(=O)c1ccc([N+](=O)[O-])cc1)C(=O)Nc1cccc(C(=O)O)c1 | inconclusive: 15.8 µM [inhibitor, partial curve, poor fit] | 
71 | Cc1ccc(-n2c(O)c(/C=N/Nc3ccc(S(=O)(=O)N4CCOCC4)cc3[N+](=O)[O-])c3ccccc3c2=O)c(C)c1 | active: 28.2 µM | 
72 | O=C(O)c1ccc(NC(=O)c2cccc(S(=O)(=O)Nc3ccc(C(=O)O)cc3)c2)cc1 |  | inactive: -12.5%
